Screen size: about 410,000 compounds; about 7,200 (1.8%) were called active. The shares of active, inactive and inconclusive entries below differ from those in the screen. Calls follow the shape of the dose curve; as a rule, active = well fitted activation curve with a large enough effect; inconclusive = small, poorly fitted or top-dose-only effect, or another doubt; inactive = no such curve, though single readings can be large or run the other way. No potency is given beside an inconclusive call; the fits are too rough.
Assay: qHTS of TDP-43 Inhibitors; also: nearly all actives have a fitted effect of over 50% in size; as to growth rescue (activation): % of control where 0% means no effect
Conditions: TDP-43 expressing yeast growth rescue, BacTiter-Glo, 24 h; growth rescue (activation): at 46.1 µM (top of the series) unless noted
Procedure, shortened: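 Yeast cells expressing TDP-43 under galactose induction are exposed to compounds for 24 hr at 30 deg C. BacTiter-Glo luminescence measures growth, so protective compounds score as activators.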
For `C[C@@H]1CN([C@H](C)CO)C(=O)CCCn2cc(nn2)CO[C@H]1CN(C)S(=O)(=O)c1ccc2c(c1)OCCCO2`, the Potency was “inactive”.
With `COc1cccc(/C=C/c2ccc3cccc(O)c3n2)c1OC` the Potency was active: 14.1 µM.
In the case of `CCOc1ccc2nc3sc(C(=O)N4CCOCC4)c(N)c3cc2c1`, the Potency is reported as inconclusive [activator, partial curve].
With `c1cncc(CNc2ncnc3sc4c(c23)CCC4)c1` the growth rescue (activation) was inactive: -25% [at 0.397 µM].
For `N/C(=N\OC(=O)c1ccc(Br)cc1)c1ccccc1`, the Potency was inconclusive [activator, single point].
With `Cc1ccc(Cl)cc1N(C)C(=O)c1cnc(N2CCOCC2)c2ccccc12` the Potency was inconclusive [activator, partial curve].
With `COc1ccc2nc(N3CCN(C(=O)C4CC4)CC3)sc2c1` the Potency was inconclusive [activator, partial curve].
In the case of `COc1ccc(Br)cc1[C@H]1[C@H]2C=CC[C@@H](C)[C@@H]2C(=O)N1Cc1ccccc1`, the Potency is reported as inconclusive [activator, single point].
With `Nc1cc(-c2ccc(Br)cc2)nn1Cc1ccccc1` the Potency was active: 20 µM.
With `C(=C1c2ccccc2-c2ccccc21)c1ccncc1` the Potency was inconclusive [activator, single point].
With `COc1ccc(NC(=O)c2ccc3[nH]c(C)c(C)c3c2)cc1` the Potency was inconclusive [activator, partial curve].
For `CC(C)(C)n1nnnc1CN1CCN(C2CCCC2)CC1`, the Potency was “inactive”.
In the case of `Cc1ccccc1CN1C(=O)c2ccccc2Sc2ccc(C(=O)NCCc3ccccc3)cc21`, the Potency is reported as “inactive”.
In the case of `CCN(CC)C(=O)c1cccc(-c2csc(C(NC(C)=O)c3ccccc3)n2)c1` (centres undefined), the Potency is reported as inconclusive [activator, full curve].
For `Cc1cccc(C)c1OCC(=O)N(Cc1ccco1)Cc1ccco1`, the Potency was inconclusive [activator, partial curve, poor fit].
With `O=C(Oc1c(Cl)cc(Cl)c2cccnc12)c1cccs1` the Potency was inconclusive [activator, full curve, poor fit].
In the case of `CCCc1nc(NCc2ccccn2)c2nnn(Cc3ccccc3F)c2n1`, the Potency is reported as inconclusive [activator, full curve, poor fit].
In the case of `Cc1ccccc1-n1nnnc1SCc1csc(-c2ccccc2)n1`, the Potency is reported as inconclusive [activator, partial curve].
In the case of `CCOc1ccc(-n2cc(-c3ccccc3)c3c(NC4CCCC4)ncnc32)cc1`, the Potency is reported as inconclusive [activator, partial curve].
For `COc1cccc(N=CC=C2OC(C)(C)C(C)(C)O2)c1`, the growth rescue (activation) was inactive: -24.3% [at 9.22 µM].
With `COc1ccc(C)cc1NC(=O)CSc1nnc(-c2ccco2)n1N` the Potency was “inactive”.
In the case of `COc1ccc(-c2csc3ncnc(N4CCN(C(=O)c5ccco5)CC4)c23)cc1`, the Potency is reported as inconclusive [activator, single point].
In the case of `CC(=O)Nc1ccc(S(=O)(=O)N2CCN(CCc3ccccc3)CC2)cc1`, the Potency is reported as inconclusive [activator, full curve, poor fit].
With `CCCCNC(=O)c1ccc2c(c1)N=C(CC)c1ccccc1S2` the Potency was inconclusive [activator, single point].
For `CC(OC(=O)c1ncc(Cl)c(Cl)c1Cl)C(=O)NC1CCCCC1C` (centres undefined), the Potency was inconclusive [activator, single point].
With `CCOc1ccc(NC(=O)c2cnc3sc(N4CCOCC4)nn3c2=O)cc1` the Potency was “inactive”.
With `C/C(=N\NC(=O)CSCc1cccc(Br)c1)c1ccc([N+](=O)[O-])cc1` the Potency was inconclusive [activator, partial curve, poor fit].
For `C=CC(n1cncn1)C(O)(c1ccccc1)c1ccccc1` (centres undefined), the Potency was inconclusive [activator, full curve].
With `COc1ccccc1CNC(=O)COC(=O)CC1CC2CCC1C2` (centres undefined) the Potency was inconclusive [activator, full curve, poor fit].
For `O=C1C(=O)N(C2CCN(C(=O)c3cccc(Cl)c3)CC2)CCN1Cc1ccc(F)cc1`, the Potency was “inactive”.
In the case of `O=C(/C=C/c1cccs1)NC(=S)NNC(=O)c1ccccc1O`, the Potency is reported as “inactive”.
For `COC(=O)c1cc(-c2ccc(OC)cc2)n[nH]1`, the Potency was inconclusive [activator, partial curve].
For `O=C1CCN(C(=O)c2ccc(Cl)cc2)N1`, the Potency was inconclusive [activator, partial curve].
With `CCCCc1ccc(NC(=O)CSc2nc(=O)[nH]c3c2CCCC3)cc1` the Potency was “inactive”.
In the case of `CC1(C)CC2(CCCN(C(=S)Nc3ccccc3)C2)CCO1` (centres undefined), the Potency is reported as “inactive”.
For `Cc1ccccc1Nc1nc(N)c(C(=O)c2ccccc2Cl)s1`, the Potency was inconclusive [activator, partial curve].
For `CCCCOc1ccccc1C1CC(=O)Nc2cc(C)c(C)cc21` (centres undefined), the Potency was “inactive”.
For `COc1ccc(N2CC(C(=O)N3CCC4(CC3)CC(=O)c3ccccc3O4)CC2=O)cc1` (centres undefined), the Potency was “inactive”.
With `CCOC(=O)c1ccc(NC(=O)c2oc3c(c2C)-c2nn(Cc4ccccc4Cl)cc2CC3)cc1` the Potency was inconclusive [activator, single point].
With `CC(C)CNc1ncnc2onc(-c3ccc(Cl)cc3)c12` the Potency was active: 11.2 µM.
In the case of `CC(C)(C)c1ccc(C(=O)NNc2ncccc2-n2cccc2)cc1`, the Potency is reported as inconclusive [activator, partial curve].
With `Cc1ccc2c(C)c(C(=O)N3CCN(c4ncccn4)CC3)oc2c1C` the Potency was inconclusive [activator, single point].
In the case of `COc1ccc(-c2cc3cc(OC)c(OC)cc3cn2)cc1`, the Potency is reported as inconclusive [activator, partial curve].
In the case of `Brc1ccc2c(c1)C(c1ccc(N3CCOCC3)cc1)=NNC(c1cccs1)=N2`, the Potency is reported as “inactive”.
With `O=C(Nc1ccc(-c2nc3cccnc3s2)cc1)c1cccnc1Cl` the Potency was “inactive”.
With `CCOC(=O)N1C(=O)[C@](c2ccc(Cl)cc2)(C(C)C)N1C(=O)OCC` the Potency was active: 15.8 µM.
With `CC1CCC(NC(=O)CSc2ccc(S(=O)(=O)N(C)C)cn2)CC1` (centres undefined) the Potency was inconclusive [activator, partial curve].
With `COc1ccc(N=C2SC(CC(=O)Nc3ccccc3)C(=O)N2CCc2ccccn2)cc1` (centres undefined) the Potency was “inactive”.
With `Cc1ccc(C)c(Nc2nc3ccccc3n3cnnc23)c1` the Potency was inconclusive [activator, partial curve].
For `OC(c1ccccc1)(c1nc(-c2ccc(Cl)cc2)cs1)C(F)(F)F` (centres undefined), the growth rescue (activation) was inconclusive: -89.4% [activator].
In the case of `CC(C)c1ccc(CNC(=O)c2ccc(N3CCCC3)c(NC(=O)NCc3ccccc3)c2)cc1`, the Potency is reported as “inactive”.
In the case of `O=Cc1c(NCc2ccccc2F)c2ccccc2[nH]c1=O`, the Potency is reported as active: 11.2 µM.
For `O=C(CN1CCOCC1)Nc1ccc(Br)cc1`, the Potency was inconclusive [activator, single point].
In the case of `N#CCC(=O)N/N=C/c1ccc(N2N=C(c3ccccc3)CC2c2ccccc2)cc1` (centres undefined), the Potency is reported as “inactive”.
With `Cc1ccc(O)c(-c2cc3ccccc3[nH]2)c1` the Potency was active: 3.16 µM.
For `CCc1ccccc1-n1cnc2cc(C(=O)NC3CCCCCC3)ccc21`, the Potency was inconclusive [activator, single point].
For `COc1ccc(-c2cc(-c3ccc(Cl)cc3)n[nH]2)c(O)c1`, the Potency was inconclusive [activator, partial curve].
For `COc1ccc(CN(Cc2ccco2)C(=O)COc2ccccc2OC)cc1`, the Potency was “inactive”.
For `CCC(c1nnnn1-c1ccc2c(c1)OCCO2)N1CCN(c2ccc(F)cc2)CC1` (centres undefined), the Potency was “inactive”.
In the case of `CCc1ccc2occ(CC(=O)Nc3ccc(OC)c(Cl)c3)c2c1`, the Potency is reported as active: 15.8 µM.
With `Cc1nc(SCC(=O)Nc2ccc(C)c(Cl)c2)cc(-c2ccccc2)n1` the Potency was “inactive”.
In the case of `Cc1ccc(NC(=O)c2cccc(S(=O)(=O)N(C)C3CCCCC3)c2)nc1`, the growth rescue (activation) is reported as inconclusive: 53.9% [activator].
In the case of `COc1cccc(NC(C)(C)c2nnnn2-c2c(C)cccc2C)c1`, the Potency is reported as inconclusive [activator, single point].
In the case of `COc1ccc(-n2nc(C(=O)Nc3ccc(C(C)=O)cc3)nc2-c2ccccc2)cc1`, the Potency is reported as active: 22.4 µM.
With `COc1ccc(/C=C/C(=O)c2ccc[nH]2)cc1OC` the Potency was inconclusive [activator, single point].
With `CSc1ncccc1C(=O)OCc1ccc(Br)cc1` the Potency was inconclusive [activator, full curve, poor fit].
In the case of `Cc1ccc(OCC(=O)Nc2c(C(=O)c3ccc(Cl)cc3)oc3ccccc23)cc1C`, the Potency is reported as “inactive”.
In the case of `COc1ccc(N(C=O)C(=S)SC)cc1`, the Potency is reported as inconclusive [activator, partial curve].
With `COc1ccc(-c2nnc(NC(=O)c3ccc(S(=O)(=O)N4CCCc5ccccc54)cc3)o2)cc1` the Potency was “inactive”.
In the case of `O=C(CN1C(=O)CSc2ccc(S(=O)(=O)N3CCCC3)cc21)NCc1ccccc1Cl`, the Potency is reported as “inactive”.
With `CC1CCN(C(=O)CCc2ccc(Oc3cc([N+](=O)[O-])cc([N+](=O)[O-])c3)cc2)CC1` the Potency was inconclusive [activator, single point].
With `Cc1cc(C)n(-c2nc(NCC3CCCO3)c3c4c(sc3n2)COC(C)(C)C4)n1` (centres undefined) the Potency was inconclusive [activator, single point].
With `Cc1ccc(S(=O)(=O)NCc2cn3ccsc3n2)c(C)c1` the Potency was “inactive”.
In the case of `CCCc1cc(C(=O)NCCc2ccccc2)no1`, the Potency is reported as inconclusive [activator, full curve, poor fit].

From PubChem BioAssay AID652104 (National Center for Advancing Translational Sciences (NCATS), 2013)
Potency is read from the fitted curve at half-maximal effect; tags tell the direction and shape of the fitted curve.
